Results taken from the supplement of paper PMC12217912.
Some of the results follow. Sequences were assembled here from the parent chain. Values near 0.05 are background.

B1: TEV protease; numbered along this chain (parent)
chain: MGESLFKGPRDYNPISSSICHLTNESDGHTTSLYGIGFGPFIITNKHLFRRNNGTLVVQSLHGVFKVKDTTTLQQHLVDGRDMIIIRMPKDFPPFPQKLKFREPQREERICLVTTNFQTKSMSSMVSDTSCTFPSGDGIFWKHWIQTKDGQCGSPLVSTRDGFIVGIHSASNFTNTNNYFTSVPKNFMELLTNQEAQQWVSGWRLNADSVLWGGHKVFMVKPEEPFQPVKEATQL

Variants of: B1
Assay: raw area under fraction-flipped curve 0-4 h after induction (AUC4h, not background-subtracted), DNA-recorder readout of cleavage of the substrate (dimensionless); higher = more cleavage of the substrate by the protease variant
Conditions: temperature: 34 °C; time window: 0-4 h after rhamnose induction
Protocol: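 In vivo DNA recorder in E. coli TOP10(DE3) ΔrhaA at 34 °C. Each TEVp single-site mutant (parent TEVp 0) is paired with a single-site variant of the 7-mer TEVs (canonical ENLYFQ|S). The substrate sits between flexible linkers in a Bxb1-sfGFP-TEVs-SsrA fusion, so cleavage stabilises Bxb1 and speeds flipping of a recombination array, read by NGS. The value is the raw area under the fraction-flipped curve over 0-4 h after rhamnose induction (AUC4h), with ≥20 reads per time point. It is not background-subtracted; inactive controls average about 0.047.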
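Note: Bxb1 expression induced with 0.2% (w/v) L-rhamnose at OD600 near 0.5, cultures sampled hourly, flipped fraction per protease–substrate barcode pair counted by paired-end Illumina sequencing.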

Variant	area with substrate ENLAFQS	area with substrate ENLDFQS	area with substrate ENLEFQS	area with substrate ENLFFQS	area with substrate ENLHFQS	area with substrate ENLKFQS	area with substrate ENLNFQS	area with substrate ENLPFQS	area with substrate ENLQFQS	area with substrate ENLSFQS	area with substrate ENLVFQS	area with substrate ENLCFQS	area with substrate ENLGFQS	area with substrate ENLIFQS	area with substrate ENLMFQS	area with substrate ENLLFQS	area with substrate ENLWFQS	area with substrate ENLRFQS	area with substrate ENLTFQS
K90Q	0.0714	0.0705	0.0639	0.0878	0.0834	0.0801	0.0577	0.0752	0.0833	0.0793	0.0679	–	–	–	–	–	–	–	–
K90C	0.0449	0.0698	0.0682	0.0834	0.0736	0.0811	0.0646	0.0763	0.0697	0.072	0.0774	0.086	0.0757	0.0754	0.0643	–	–	–	–
K90Y	0.0724	0.0634	–	0.154	–	0.0957	0.0635	–	–	0.0588	–	–	–	–	–	0.069	–	–	–
L73F	0.0647	0.0633	0.0557	0.0609	0.0606	0.0664	0.0422	0.0563	–	0.0536	0.065	0.0663	–	–	0.056	0.0567	0.0525	–	–
D69M	0.0383	0.06	0.0488	0.072	0.0461	0.0743	0.0664	–	0.0443	–	0.0718	–	0.0582	–	0.0457	–	–	0.0712	–
G54D	0.0633	0.0565	0.0647	0.0556	0.062	0.0669	0.0615	0.0838	0.0599	0.0663	0.0786	0.0695	–	0.0579	0.0696	0.0592	–	0.0633	–
G39P	0.0491	0.0403	–	0.0601	0.0388	0.0456	0.037	0.0544	0.0375	0.0425	0.0403	0.0447	–	0.0491	–	0.0449	–	0.0355	0.0431
I43M	0.0562	0.0564	0.0614	0.0656	0.0625	0.0598	0.0623	0.0519	0.0606	–	–	0.0547	0.0593	0.0734	0.0752	0.0775	–	0.0645	–
V67H	0.0602	0.0533	0.0549	0.0218	–	0.0759	0.0599	0.0878	0.0599	0.0609	–	0.0811	–	–	0.0618	0.0729	–	0.0612	–
T70Y	0.0616	0.0649	0.0691	0.0692	0.0794	0.0573	0.0719	0.0585	0.0614	0.0691	–	0.056	–	0.0754	–	0.0614	0.072	0.0651	–
T70V	0.0453	0.0484	–	0.08	0.0609	0.0682	0.0538	0.0635	0.0454	0.0785	0.0654	0.0664	0.0838	0.0729	–	0.0507	0.0694	–	–
K100A	0.0625	0.0842	–	–	0.0673	–	0.0543	0.0523	–	–	0.0743	0.0891	–	0.0636	–	0.0594	–	–	–
S60A	0.0642	0.0619	–	0.0762	0.0534	0.0744	0.0682	0.044	0.0435	0.0528	0.0777	0.0681	0.048	–	0.0864	–	0.0572	0.0864	–
P94M	0.0689	0.0461	0.0943	0.128	–	–	0.0616	0.0717	0.0823	–	–	0.0519	0.0626	0.145	0.0419	–	–	0.0684	–
F65S	0.0587	0.0795	0.0776	0.0415	0.0318	–	–	0.0694	–	–	0.0772	–	–	–	0.0668	–	–	–	–
G63C	0.067	0.0619	0.0471	0.0796	0.0719	0.068	0.0563	0.0677	0.0794	–	0.0636	0.0524	0.0724	–	–	0.0865	0.11	0.0735	–
G63V	0.0839	0.0599	0.072	0.0788	0.0529	0.0685	0.0614	–	0.0824	0.0659	–	0.0668	–	0.072	0.0568	–	0.0669	–	0.0815
R50Q	0.0666	0.0637	–	0.0856	0.0746	0.0778	0.0599	0.0443	0.0692	0.069	0.076	–	–	0.0541	–	0.079	0.0753	–	–
R50V	0.0647	0.0572	0.109	–	0.0521	0.0866	0.0713	0.0546	0.0692	0.069	–	–	0.0884	0.0909	–	–	0.0654	–	–
T31L	0.0514	0.0473	–	0.0991	0.0748	0.0827	0.0602	0.0517	–	0.0635	–	0.0781	–	0.107	–	0.0452	0.0686	0.104	0.0593
M88K	0.0422	–	–	–	0.0592	0.0649	–	–	–	0.0672	–	0.0629	0.0627	–	–	–	–	0.0632	–
T72Y	0.0546	0.0473	0.0572	0.0703	0.0265	0.0557	0.0663	0.0644	–	0.053	–	0.0186	–	0.0663	–	–	–	0.0664	0.0569
K46D	0.0528	0.061	0.0528	0.0807	0.0563	0.0606	0.0621	0.0609	0.061	0.035	0.0575	0.0657	0.0658	0.0462	0.0615	0.0552	0.0623	–	0.0454
G35Q	0.033	0.0596	–	0.0034	0.0497	–	0.0461	–	–	–	–	–	0.0319	0.0311	–	–	0.0332	–	–
G28V	0.06	0.0714	0.0591	0.0633	0.0611	0.051	0.0543	0.0566	0.0629	0.0572	–	0.0696	–	–	–	0.0677	0.0659	0.0703	–
Y34N	0.0711	0.0647	–	0.0977	–	0.0572	0.0643	0.0497	–	0.0611	–	–	–	–	–	0.0583	–	0.0836	–
I86Y	0.045	–	–	–	–	0.0578	–	–	–	–	–	–	–	0.0602	–	–	0.0484	–	–
K68M	0.0543	0.0587	–	0.0835	0.0828	–	–	0.056	–	–	–	–	–	0.0844	0.0769	0.0781	0.0623	0.0757	–
